Source: publication PMC4336329 (PLoS ONE, 2015)
Among all 310,000 compounds or so, about 14,000 (4.5%) showed an effect of 50% or more. The effect is printed as a negative number. Some of the results follow.

These molecules were tested against human ether-à-go-go-related gene (hERG) potassium channel (human, UniProt Q12809) (assay: primary screen, population patch clamp on CHO cells stably expressing hERG).
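Further: peak tail current of the secondary pulse compared with the same well before compound.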

human ether-à-go-go-related gene (hERG) potassium channel, sequence (Q12809 whole entry, looked up): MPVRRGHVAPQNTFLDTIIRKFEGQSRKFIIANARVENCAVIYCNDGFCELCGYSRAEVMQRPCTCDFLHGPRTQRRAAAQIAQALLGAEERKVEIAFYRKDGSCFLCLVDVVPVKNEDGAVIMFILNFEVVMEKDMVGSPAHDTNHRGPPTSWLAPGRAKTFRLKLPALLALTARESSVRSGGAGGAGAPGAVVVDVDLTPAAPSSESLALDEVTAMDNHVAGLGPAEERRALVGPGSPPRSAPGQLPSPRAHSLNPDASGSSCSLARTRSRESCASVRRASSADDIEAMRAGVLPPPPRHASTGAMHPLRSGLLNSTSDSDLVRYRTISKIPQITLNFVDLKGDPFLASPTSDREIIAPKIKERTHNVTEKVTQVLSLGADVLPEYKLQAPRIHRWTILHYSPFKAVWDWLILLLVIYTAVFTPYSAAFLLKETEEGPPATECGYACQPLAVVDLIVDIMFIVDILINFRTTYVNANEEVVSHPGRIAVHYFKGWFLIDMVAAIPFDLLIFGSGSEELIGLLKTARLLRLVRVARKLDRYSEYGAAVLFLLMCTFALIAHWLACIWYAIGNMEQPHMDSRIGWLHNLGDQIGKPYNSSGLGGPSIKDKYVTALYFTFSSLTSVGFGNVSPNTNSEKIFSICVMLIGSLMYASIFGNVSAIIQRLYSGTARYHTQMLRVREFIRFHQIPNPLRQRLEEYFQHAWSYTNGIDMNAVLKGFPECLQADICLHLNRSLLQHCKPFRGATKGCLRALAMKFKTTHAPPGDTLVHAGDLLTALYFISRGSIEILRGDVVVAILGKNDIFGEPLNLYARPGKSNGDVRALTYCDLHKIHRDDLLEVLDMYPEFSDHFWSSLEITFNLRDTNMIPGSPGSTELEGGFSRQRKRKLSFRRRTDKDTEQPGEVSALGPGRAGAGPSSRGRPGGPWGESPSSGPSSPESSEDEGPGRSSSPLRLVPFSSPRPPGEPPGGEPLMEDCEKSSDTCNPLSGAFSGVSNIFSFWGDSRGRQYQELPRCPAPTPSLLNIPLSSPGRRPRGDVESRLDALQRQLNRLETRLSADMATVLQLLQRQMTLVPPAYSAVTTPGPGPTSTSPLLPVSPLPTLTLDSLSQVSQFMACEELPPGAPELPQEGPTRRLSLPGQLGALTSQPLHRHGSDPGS

Compound | hERG current change (%, negative = inhibition) at 10uM
Cl.N[C@@H](CO)c1nnc([C@H](CCC(=O)O)NC(=O)C2CCNCC2)o1 | 13.2%
Cc1[nH]c2ccccc2c1C(=O)NS(=O)(=O)Nc1ccc(F)cc1 | 19%
O=[N+]([O-])c1ccc(Cl)c(/C=N/N2CCN(Cc3ccccc3Cl)CC2)c1 | -16.6%
Cc1cc(C)c(NC(=O)CSc2nc(=O)n3cc(C)ccc3n2)c(C)c1 | 10.8%
O=C(O)C1C2CCC(O2)C1C(=O)Nc1ccccc1Br (stereo not drawn) | 5.56%
COc1ccc(NC(=O)CSc2nnc3ccc(-c4ccncc4)nn23)cc1 | -30.9%
c1ccc2cc(OCCOCCOc3ccc4ccccc4c3)ccc2c1 | -5.55%
COc1ccc(OCC(O)CN2CCc3ccccc3C2)cc1.Cl (stereo not drawn) | -33.1%
O=C(CSc1nnc(C23CC4CC(CC(C4)C2)C3)o1)Nc1ccc(N2CCOCC2)c(Cl)c1 | 16.3%
Cc1ccc(OCc2ccc(C(=O)NN)o2)cc1C | 6.24%
CCOc1ccc(CCNC(=O)CN2C(=O)c3cccnc3Oc3ccc(C)cc32)cc1OCC | -9.55%
CCN(CC(=O)Nc1ccc2c(c1)OCCO2)C(=O)CCOc1ccccc1 | -1.92%
Cc1cc(=O)oc(C)c1C(=O)N1CCN(C)CC1 | 10%
O=C(Nc1ccc(F)cc1)c1ccccc1S(=O)(=O)c1ccccc1[N+](=O)[O-] | -17.5%
Cc1cc(C)c(S(=O)(=O)N2CCC(C(=O)NCc3ccncc3)CC2)c(C)c1 | -14%
CCC1CCCCN1CCCNC(=O)CN1C(=O)COc2ccc(S(=O)(=O)N3CCOCC3)cc21 (stereo not drawn) | -3.51%
COc1ccc(N=c2cc(-c3ccc(O)cc3)oc3ccccc23)cc1.Cl | -42.8%
COc1ccccc1NC(=S)NNC(=O)c1ccncc1 | 24.2%
Cc1ccc(-c2cc(C(=O)Nc3ccccc3C)c3ccccc3n2)o1 | 9.38%
CCCCCCCn1c(=O)c(C(=O)OC)c(N)c2ccccc21 | -9%
O=C(c1cccc(-n2cccc2)c1)N1CCN(S(=O)(=O)c2ccccc2)CC1 | -32%
CCNC(=O)c1ccc(OCC(=O)Nc2ccc(F)cc2)c(OC)c1 | -46%
O=c1nc(SCc2c(F)cccc2Cl)nc(-c2ccccc2)[nH]1 | 12.9%

Compound | hERG current change (%, negative = inhibition) at 10uM
CC(C)NC(=O)c1ccc2c(c1)S(=O)(=O)c1ccccc1C2=O | 8.77%
CCCOP(=O)(c1ccc(N(C)C)cc1)C(O)c1cc(OC)ccc1OC (stereo not drawn) | 0.331%
COc1cccc(NC(=O)CCc2nc(-c3ccccc3F)no2)c1 | -0.885%
O=C(O)c1ccc(N/N=C/c2ccc3nccnc3c2)cc1 | -4.73%
CCOc1ccccc1N(CC(=O)Nc1cc(OC)ccc1OC)S(=O)(=O)c1ccccc1 | 22.7%
COCCN1C(=O)c2ccc(C(=O)Nc3cccnc3)cc2C1=O | 9.67%
CC1=C(C(=O)OC2CCCCC2)C(c2ccco2)n2ncnc2N1 (stereo not drawn) | 6.97%
Cc1ccc(N2CC(O)Cn3c2nc2c3c(=O)n(C)c(=O)n2C)cc1 (stereo not drawn) | 16.6%
COc1ccc(-c2noc(CN(C)C(=O)c3ccc4c(c3)OCO4)n2)cc1 | -25.5%
O=c1cc(-c2ccccc2Cl)oc2cccc(O)c12 | -8.9%
CC(CN1CCOCC1)OC(=O)C1COc2ccccc2O1.Cl (stereo not drawn) | 19%
CCN(CC)S(=O)(=O)c1ccc(NC(=S)NC(=O)CC(C)C)cc1 | -5.43%
O=C(CSCC(=O)NCc1ccco1)NCc1ccco1 | -66%
O=S(=O)(c1cccs1)N1CCN(Cc2nc3ccccc3s2)CC1 | -27.8%
Cc1ncc([N+](=O)[O-])n1CCOC(=O)c1cc(Cl)cc(Cl)c1N | -39%
CCCn1nc(-c2nnc(-c3ccc(C)c(C)c3)o2)c2ccccc2c1=O | -8.54%
CCC(C)n1c(=N)c(C#N)cc2c(=O)n3cc(C)ccc3nc21 (stereo not drawn) | -70.9%
Cn1ccnc1SCC(=O)NC12CC3CC(CC(C3)C1)C2 | 7.72%
Cc1ccc(OCC(=O)N(C)CCc2ccccn2)cc1 | 10%
COc1ccc(/C=C/c2c(-c3ccc(OC)cc3)oc3ccccc23)cc1 | -8.16%
Cc1ccc(CN2CCN(/N=C/c3cc(Br)cc(Br)c3O)CC2)cc1 | 5.09%
C=CCc1cc(OC)ccc1OCC(O)CN1CCN(c2ccc(OC)cc2)CC1.Cl (stereo not drawn) | -71.2%
